The text below walks through data of the RNAGym collection of RNA variant scans (doi:10.7554/elife.90254).

Read counts are not given, so values of variants with three or more changes are uncertain.

B1: LINE1-full (parent)
chain: UACGUAGGUGGUUUUCCCCUGAUAGUGCUAAGGGGGCCUGGAAGUUUGGACUGGGCAGAGCUCAACACAGCGUGGCAAAGUGGCUGUGGCUAGACUGCCUCUCUGGAUUCCUCGUCACUCAGCAGGGCAUCUCUGAGAGAAAUGCC

Variants of B1 are the subject of this data set. In words: self-cleavage, relative activity (ratio to wild type); higher = more cleavage; in vitro, sequencing; the parent is a self-cleaving ribozyme.
Consider UACGUAGGCGGUUUUCCCCUGAUAGUGCUAAGGGGGCCUGGAGGUUUGGACUGGGCAGAGCUCAACACAGCGUGGCAAAGUGGCUGUGGCUAGACUGCCUCUCUGGAUUCCUCGUCACUCAGCAGGGCAUCCCUGAGAGAAAUGCC [U9C A43G U132C], for which the self-cleavage was 0.66.
For UACGUAGGCGGUUUUCCCCUGAUAGUGCUGAGGGGGCCUGGAAGUUUGGACUGGGCAGAGCUCAGCACAGCGUGGCAAGGUGGCUGAGGCUAGACUGCCUCUCUGGAUUCCUCGUCACUCAGCAGGGCAUCUCUGAGAGAAAUGCC [U9C A30G A65G A79G U87A], the self-cleavage came out at 0.
Turning to UACGUAGGCGGUUUUCCCCUGAUAGUGCUAAGGGGGCCUGGAAGUUUGGACUGGGCAGGGCUCAACACAGCGUGGCAAAGUGGCUGUGGCUAGACUGCCUCUCAGGAUUCCUCGUCACUCAGCAGGGCAUCUCUGAGAGGAAUGCC [U9C A59G U104A A140G], the self-cleavage came to 0.1.
Take UACGUAGGCGGUUUUCCCCUGAUAGUGCUAAGGGGGCCUGGAAGUUUGGACUGGGCCGAGCUCAACACAGCGUGGCAAAGUGGCUGUGGCUAGACUGCCUCUCUGGAUUCCUCGUCACUCAGCUGGGCAUCUCUGAGAGAAAUGCC [U9C A57C A124U]: the self-cleavage worked out at 0.37.
Take UACGUAGGCGGUUUUCCCCUGAUAGUGCUAAGGGGGCCUGGAAGUUUGGACUGGGCAGUGCUCAACACAGCGUGGCAAAGUGGCUGUGGCUAGACUGCCUCUCUGGAUUCCUCGUCACUCGGCAUGGCAUCUCUGAGAGAAGUGCC [U9C A59U A121G G125U A142G]: the self-cleavage was found to be 1.28.
The same measure for UACGUAGGCGGUUUUCCCCUGAUAGUGCUAAGGGGGCCUGGAAGUUUGGACUGGGCAGAGCUCAACACGGCGUGGCAAAGUGGCUGUGGCUAGACUGCCUCUCUGGAUUCCUUGUCACUCAGCAGGGCAUCUCUGAGAGAAAUGCC [U9C A69G C113U]: 0.75; for UACGUAGGCGGUUUUCCCCUGAUAGUGCUAAGGGGGCCUGGAAGUUUGGACUGGGCGGAGCUCAACACAGCGUGGCAAAGUGGCUGUGGCUAGACUGCCUCUCUGGUUUCCUCGUCACUCAGCAGGGCAUCUCUGAGAGAAAUGCC [U9C A57G A107U]: 0.62; for UACGUAGGCGGUUUUCCCCUGAUAGUGCUAAGGGGGCCUGGAAGUUUGGACUGGGCAGAGCUCAGCACAGCGUGGCGAAGUGGCUGUGGCUAGACUGCCUCUCUGGAUUCCUCGUCACUCAGCAGGGCAUCUCUGAGAGAAAUGCC [U9C A65G A77G]: 0.
Turning to UACGUAGGCGGUUUUCCCCUGAUAGUGCUAAGGGGGCCUGGAAGUUUGGACUGGGCAGAGCUCGACACAGCGUGGCAAAGUGGCUGUGGCUAGGCUGCCUCUCUGGAUUCCUCGUCACUCAGCAGGGCAUCUCUGAGAGAGAUGCC [U9C A64G A94G A141G], the self-cleavage was found to be 0.
As for UACGUAGGCGGUUUUCCCCUGAUAGUGCUAAGGGGGCCUGGAAGUUUGGACUGGGCAGAGCUCAACACAGCGUGGCAGAGUGGCUGUGGCUAGACUGCCUCUCUGGAUUCCUCGUCACUCAGCAUGGCACCUCUGAGAGAAAUGCC [U9C A78G G125U U130C], the self-cleavage turned out to be 1.6.
In the case of UACGUAGGCGGUUUUCCCCUGAUAGUGCUAAGGGGGCCUGGGAGUUUGGACUGGGCAGAGCUCAACACAGCGUGGCAGAGUGGCUGUGGCUAGACUGCCUCUCUGGAUUCCUCGUCACUCAGCAGGGCAUCUCUGAGAGAAAUGCC [U9C A42G A78G], the self-cleavage was 1.13.
Turning to UACGUAGGCGGUUUUCCCCUGAUAGUGCUAAGGGGGCCUGGAAGUUUGGACUGGGCAGAGCUCUACACAGCGUGGCAAAGUGGCUGUGGCUAGACUGCCUCUCUGGAUUCCUCGUCACUCAGCAGGGCAUCUCUGAGAGAAACGCC [U9C A64U U143C], the self-cleavage is 0.78.
As for UACGUAGGCGGUUUUCCCCUGAUAGUGCUAAGGGGGCCUGGGAGUUUGGACUGGGCAGAGCUCAACACAGCGUGGCAAAGUGGCUGUGGCUAGACUGCCUCUCAGGAUUCCUUGUCACUCAGCAGGGCAUCUCUGGGAGAAAUGCC [U9C A42G U104A C113U A136G], the figure is 0.68; as for UACGUAGGCGGUUUUCCCCUGAUAGUGCUAAGGGGGCCUGGAAGUUUGGACUGGGCAGAGCUCAACACAGCGUGGCACAGUGGCUGUGGCUAGACUGCCUCUCUGGACUCCUCGUCACUCAGCAGGGCAUCUCUGAGAGAAAUGCC [U9C A78C U108C], 2.92.
As for UACGUAGGCGGUUUUCCCCUGAUAGUGCUAAGGGGGCCUGGAAGUUUGGACUGGGCAGAGCUCAACACUGCGUGGCAAAGUGGCUGUGGCUAGACUGCCUCUCAGGAUUCCUCGUCACUCAGCAGGGCAUCUCUGAGAGAAAUGCC [U9C A69U U104A], the figure is 0; as for UACGUAGGCGGUUUUCCCCUGAUAGUGCUAAGGGGGCCUGGAAGUUUGGACUGGGCAGAGCUCAACACAGCGUGGCAGAGUGGCUGUGGCUAGACUGCCUCUCCGGAUUCCUCGUCACUCAGCAGGACAUCUCUGAGAGAAAUGCC [U9C A78G U104C G127A], 1.13; as for UACGUAGGCGGUUUUCCCCUGAUAGUGCUAAGGGGGCCUGGAAGUUUGGACUGGGCAGAGCUCAACACAGCGUGGCAAGGUGGCUGUGGCUAGACUGACUCUCUGGAUUCCUCGUCACUCAGCAGGGCAUCUCUGAGAGAAAUGCC [U9C A79G C98A], 0.13.
With UACGUAGGCGGUUUUCCCCUGAUAGUGCUAAGGGGGCCUGGGAGUUUGGACUGGGCAGAGCUCAACACAGCGUGGCAAAGCGGCUGUGGCUAGACUGCCUCUCUGGAUUCCUCGUCACUCAGCAGGGCAUCUCUGAGAGAAAUGCC [U9C A42G U81C], the self-cleavage is 0.
Take UACGUAGGCGGUUUUCCCCUGAUAGUGCUAAGGGGGCCUGGAAGUUUGGACUGGGCAGAGCUCAACACAGCGUGGCGAAGUGGCUGUGGCUUGACUGCCUCUCUGGAUUCCUCGUCACUCAGCAGGGCAUCUCCGAGAGAAAUGCC [U9C A77G A92U U134C]: the self-cleavage stood at 0.61.
The same measure for UACGUAGGCGGUUUUCCCCUGAUAGUGCUAAGGGGGCCUGGGAGUUUGAACUGGACAGAGCUCAACACAGCGUGGCAAAGUGGCUGUGGCUAGACUGCCUCUCUGGAUUCCUCGUCACUCAGCAGGGCAUCCCUGAGAGAAAUGCC [U9C A42G G49A G55A U132C]: 0.14; for UACGUAGGCGGUUUUCCCCUGAUAGUGCUAAGGGGGCCUGGAAGUUUGGGCUGGGCAGAGCUCAACACAGCGUGGCAAAGUGGCUAUGGCUAGACUGCCUCUCUGGUUUCCUCGUCACUCAGCAGGGCAUCUCUGAGAGAAAUGCC [U9C A50G G86A A107U]: 0.06; for UACGUAGGCGGUUUUCCCCUGAUAGUGCUAAGGGGGCCUGGAAGUUUGGACUGGGCAGAGCUCAACACGGCGUGGCAGAGUGGCUGUGGCUAGACUGCCUCUCUGGAUUCCUCGUCACUCAGCAGGGCAUCUCUGAGAGAAAUGCC [U9C A69G A78G]: 0.51.
UACGUAGGCGGUUUUCCCCUGAUAGUGCUAAGGGGGCCUGGAGGUUUGGACUGGGCAGAGCUCAACACUGCGUGGCAAAGUGGCUGUGGCUAGACUGCCUCUCUGGAUUCCUCGUCACUCAGCAGGGCAUCUCUGAGAGAAAUGCC [U9C A43G A69U]: the self-cleavage was found to be 0.
With UACGUAGGCGGUUUUCCCCUGAUAGUGCUAAGGGGGCCUGGAAGUUUGGACUGGGCAGAGCUCAACACAGCGUGGCAUAGUGACUGUGGCUAGACUGCCUCUCUGGAUUCCUCGUCACUCAGCAGGGCAUCUCUGAGAGAAAUGCC [U9C A78U G83A], the self-cleavage stood at 1.5.
As for UACGUAGGCGGUUUUCCCCUGAUAGUGCUAAGGGGGCCUGGAAGUUUGGACUGGGCGGAGCUCAACACAGUGUGGCAAAGUGGCUGUGGCUAGACUGCCUCUCUGGAUUCCUCGUCACUCAGCAGGGCAUCUCUGAGAGAAAUGCC [U9C A57G C71U], the self-cleavage was found to be 0.19.
For UACGUAGGCGGUUUUCCCCUGAUAGUGCUAAGGGGGCCUGGAAGUUUGGACUGGGCAGAGCUCAGCACAGCGUGGCAAAGUGGCUGUGGAUAGACUGCCUCUCUGGAUUCCUCGUCACUCAGCAGGGCAUCUCUGAGAGAAAUGCC [U9C A65G C90A], the self-cleavage turned out to be 0.07.
UACGUAGGCGGUUUUCCCCUGAUAGUGCUAAGGGGGCCUGGAAGUUUGGACUGGGCUGAGCUCAACACAGCGUGGCAAAGUGGCUGUGGCUAGACUGCCUCUCUGGAUUCCUCGUCACUCAGCAGGGCAUCUCUGAAAGAAAUGCC [U9C A57U G137A]: the self-cleavage is 0.25.
As for UACGUAGGCGGUUUUCCCCUGAUAGUGCUAUGGGGGCCUGGAAGUUUGGACUGGGCAGAGCGCAACACAGCGUGGCAAAGUGGCUGUGGCUAGACUGCCUCUCUGGAUUCCUCGUCACUCAGCAGGGCAUCUCUGAGAGAAAUGCC [U9C A31U U62G], the figure is 0.24; as for UACGUAGGCGGUUUUCCCCUGAUAGUGCUAAGGGGGCCUGGAAGUUUGGACUGGGCGGAGCUCAACACAGCGUGGUAAAGUGGCUGUGGCUAGACUGCCUCUCUGGAUUCCUCGUCACUCAGCAGGGCAUCUCUGAGAGAAAUGCC [U9C A57G C76U], 1.4.
Regarding UACGUAGGCGGUUUUCCCCUGAUAGUGCUAAGGGGGCCUGGGAGUUUGGACUGGGCAGAGCCCAACACAGCGUGGCAAAGUGGCUGUGGCUAGACUGCCUCUCUGGAUUCCUCGUCACUCAGCAGGGCAUCUCUGAGAGAAAUGCC [U9C A42G U62C], the self-cleavage stood at 0.21.
The same measure for UACGUAGGCGGUUUUCCCCUGAUAGUGCUAAGGGGGCCUGGAAGUUUGGACUGGGCAGAGCUCAGCACAGCGUGGCAAAGUGGCUGUGGCUAGACUGCCCCUCUGGAUUCCUCGUCACUCAGCAGGGCAUCUCUGAGAGAAAUGCC [U9C A65G U100C]: 0; for UACGUAGGCGGUUUUCCCCUGAUUGUACUAAGGGGGCCUGGAAGUUUGGACUGGGCAGAGCUCAACACAGCGUGGCAAAGUGGCUGUGGCUAGACUGCCUCUCUGGAUUCCUCGUCACUCAGCAGGGCAUCUCUGAGAGAAAUGCC [U9C A24U G27A]: 0.96; for UACGUAGGCGGUUUUCCCCUGAUAGUGCUAAGGGGGCCUGGAAGUUUGGACUGGGCAGAGCUCAGCACAGCGUGGCAAAGUGGCUGUGGCUGGACUGCCUCUCUCGAUUCCUCGUCACUCAGCAGGGCAUCUCUGAGAGAAAUGCC [U9C A65G A92G G105C]: 0.
As for UACGUAGGCGGUUUUCCCCUGAUAGUGCUAAGGGGGCCUGGAAGUUUGGACUGGGCAGAGCUCAACACAGCGUGGCGAAGUGGCUGUGGCUAGACUGCCUCUCUGGAUUCCUCGUCACUCAGCAGGGCGUCUCUGAGAGAAAUGCC [U9C A77G A129G], the figure is 1.41; as for UACGUAGGCGGUUUUCCCCUGAUAGUGCUAAGGGGGCCUGGAAGUUUGGACUGGGCAGAGCUCAACACGGCGUGGCAAAGUGGCUGUGGCUAGACUGCCUCUCUGGAUUCCUCGUCACUCAGCAGGGCAUCCCUGAGAGAAGUGCC [U9C A69G U132C A142G], 0.19.
For the variant UACGUAGGCGGUUUUCCCCUGAUAGUGCUAAGGGGGCCUGGAAGUUUGGACUGGGCAGAGCUCAACACAGCGUGGCAGAGUGGCUGCGGCUAGACUGCCCCUCUGGAUUCCUUGUCACUCAGCAGGGCACCUCUGAGGGAAAUGCC [U9C A78G U87C U100C C113U U130C A138G], the self-cleavage is 0.
With UACGUAGGCGGUUUUCCCCUGAUAGUGCUAAGGGGGCCUGGAAGUUUGGACUGGGCAGAGCUCACCACAGCGUGGCGAAGUGGCUGUGGCUAGACUGCCUCUCUGGAUUCCUCGCCUCUCAGCAGGGCAUCUCUGAGAGAAAUGCC [U9C A65C A77G U115C A117U], the self-cleavage is 0.
As for UACGUAGGCGGUUUUCCCCUGAUGGUGCUAAGGGGGCCUGGAAGUUUGGACUGGGCAGAGCUCAACACAGCGUGGCAAAGUGGCCGUGGCUAGACUGCCUCUCUGGAUUCCUCGUCACUCUGCAGGGCAUCUCUGAGAGAAAUGCC [U9C A24G U85C A121U], the self-cleavage worked out at 0.
UACGUAGGCGGUUUUCCCCUGAUAGUGCUAAGGGGGCCUGGAAGUUUGGACUGGGCAGGGCUCAACACAGCGUGGCAAAGUGGCUGUGGCUAGACUGCCUCUCUGGAUUCCUCGUCACUCAGCAGGGCAUCUCUGAGUGAAAUGCC [U9C A59G A138U]: the self-cleavage came out at 0.2.
